Data: the supplement of paper PMC10126150
Sequences with one replicate were seen in a single cluster, so their values are uncertain.

system: ATP; assay: switch fluorescence ratio, 500 uM ATP over buffer (Cy3 cluster intensity, sum of 5 cycles each) (fold (ratio)); higher = stronger signal-on switching upon ATP binding; sequences stand for … in TCGTCGGCAGCGTCAGATGTGTATAAGAGACAGTTTTTTTTTTTTTTTTTTTTTTTTT…TC; details: aptamer strand: ATP DNA aptamer (quencher-CACCTGGGGGAGTATTGCGGAGGAAGG + anchor), 100 nM annealed; ATP concentration: 500 uM; one replicate
Summary of the method: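 Clusters with intensities outside 100-1000 RFU were excluded. The remaining Cy3-labelled switching-strand clusters on a modified Illumina MiSeq flow-cell had been annealed to 100 nM quencher-labelled ATP aptamer and imaged in selection buffer, then after 15 min with 500 uM ATP at 22 °C, for five cycles separated by NaOH stripping and re-annealing. The fluorescence ratio, averaged per switch-domain sequence, is each cluster's summed target-cycle Cy3 intensity over its summed buffer-cycle Cy3 intensity.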
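Further: ATP exposure 15 min at 22 °C before imaging.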

Sequence	switch fluorescence ratio
GTCGGATTGG	1.02
GGGTACCAAA	0.99
CTGTGAGGTG	1.04
GTAAGAACTA	1.02
ACGCACACC	1.55
TGCTGACGAT	1.08
ACCCTTTGAG	1.02
AGCCAGAGCT	0.945
ATATAACGAG	0.982
TAGGGTGGTG	0.952
GATTATCCC	1.06
ATTAGTATGT	0.965
GTTAAGGGCT	0.957
ACTCAAGTTG	1.04
GGGGTGCCT	0.994
ATCTACTTTG	1.06
CCTTACCAAT	1.14
AAAGTTGAAC	0.953
ATGAGGGAGC	0.99
GGCTCTATTT	0.927
ACCACCGGGC	1.17
TAATATCTTC	0.999
TATCATCGCA	1.07

Sequence	switch fluorescence ratio
GGCAGCGACG	1
AAATTTTGCA	0.997
CATTAAATAA	0.938
TTGAACGATC	0.989
CGTTTGAGGC	1.03
ATCTTATTCT	0.998
GCGAACGAGG	1.02
ACCCAGCTGT	1.13
GCAAGCATCC	1.53
CGGTTAGTCG	0.969
ATAGGGACGG	0.992
TTAGGGATTC	0.982
TTAGCCGTAG	0.988
CAAGTCATTA	1
CTGACCCCTG	0.958
ACAAATTAGT	0.978
AGAGGATCTA	1.08
ACCCAACCGT	1.17
AGGTGTATT	1.03
GCAAGGGTGC	1.09
ACTGAGCTT	1.01
CACAAGGGT	0.959
AAACGTTAAA	0.95

Sequence	switch fluorescence ratio
TTGGCACTCC	1.01
TACCAGACCG	1.11
GTGTTAGCTC	0.948
TCTTAATTGA	1.02
CACAGAAGCT	1.06
GGCCGAGAAG	1.04
TGTTCAGTGG	1.02
AGGGCCTCGG	0.964
AGAGTGCGAA	1.03
AATTAGCGAT	1.07
GCTACTTCGA	1.04
GATAACTCAG	0.957
GTGCGAGTGG	1.03
GTAATGCGGC	1.1
AGCACAGATT	1.01
ATCATACCTA	1.04
CCAAGTCAAC	1.46
TGAGTAACGT	0.964
TGGGAGGTG	1.05
TCGTTAAGTC	1.03
CTGGAACGGT	0.966
TATGCTATTT	0.966
ATTCGTAGT	0.987

Sequence	switch fluorescence ratio
AATATTCTTG	1.01
CGGATACGGG	1.01
CGCTACACAG	1.06
GTGAGTGAGT	0.992
CCCATCAGGG	1.05
ACGACATGAA	1.22
GAGTTTCCCA	0.993
AAGATTAATT	0.996
GGTTCTCAGA	1.03
TGAGTCCATC	0.986
TAGTTTAGGC	1.04
ATCGTGTGGG	0.977
CTTCCGTCCA	2.3
CTCGCATTTT	1.36
ACTGGGATTA	0.974
TGACGCGTGC	1.4
AAGACCTCGA	0.979
CTGTTTTTGG	1.01
TTTCCGCCCT	1.02
CGCACCACGT	1.04
GCTATCATCA	1.02
TCTTACTGTG	1.02
AAAAATTGGT	1.02

Sequence	switch fluorescence ratio
TGTCCGACGT	1.26
TCATCGTGTT	0.954
CACGAGTTTA	1.01
ATAAAGAGGT	0.955
GCACTGTGTT	1.04
CGGCCTTGAG	0.937
ATCTTCTGAA	0.997
GCTTGTTGAA	0.976
AGATGCGAAT	0.935
GTAGGGTT	0.955
CAGGGCCAG	0.973
CCTTGTCTGG	1.08
CAGTCGGCGT	1.06
CGATGCAGCT	1.05
TATTGGACCT	1.29
GATCCCATTG	0.983
GGTGTATCAG	1.01
TAGTAAAAGA	1.06
CCGGTGCGAA	2.07
AGTCGGTATG	0.961
TGTCCTAGGG	1.01
CAAACAAACC	1.03
CTCCGGCGCC	1.34

Sequence	switch fluorescence ratio
ACGAGCTTCG	0.983
TCATGGTGTA	1.01
ACGATAGTGG	0.974
CTGCCGACTG	1.04
TAAGTCGTAC	1.03
CCATCCTGCA	2.51
CAATCTTAAC	0.996
CCCACTAGGC	1.05
CTGGTGATAC	3.55
CGATGAGTTG	0.972
CGCGCGCTTG	1
AAATCCATAG	1
ATGAGGAGCT	0.985
TCTAGCGAAG	0.985
GCTAAAGCAT	1
GTTATACGAC	1.24
AATTGGAA	0.985
GCCCTTTCTC	1.02
TGACAGGCTC	0.996
GGATGTATCC	0.97
CTGGGCTATG	0.992
TAGTGTCCTT	0.977
GAGTCTGGAT	1.05

Sequence	switch fluorescence ratio
CCCAATGCAT	1.05
GCTCGTAATT	1.09
TCTGCAGGCA	0.961
CTGAGCAGTG	1.04
ATGCCATTAT	1
TCTGTTGTCC	1.03
ATCTGGCCAC	1.07
AATACCACGA	1.13
TGAATTATAA	1
CATTCGGTTA	0.95
GCGTCAGGCT	1.04
CTGGACATGC	1.1
ACGGGGCCC	1.02
AAGGCTAGCG	1
CGCGAAGTAG	1.01
ATCCCGGGTT	1.02
GTCTGTCGCT	0.962
GAGGACAGTT	0.969
CTGACATAGC	2.03
